Assay results as given in PubChem BioAssay (NCI).
A structure can be active in one record and inactive in another.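 A percent growth of 40 corresponds to 60% growth inhibition; 0 means no net growth; -100 means all cells died. Active threshold: below 10.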 A number of entries come with more than one value. The other results are left out here. There may be further records. This drug was run again and again over the years, at its own concentration, as given; one value stands for one run. Signs of the kind (2×) count equal records among those shown.

Tests used:
Test in all cases: NCI-60 one-dose screen, 48 h (100 = growth as untreated, 0 = no growth, -100 = all killed)
U251 CNS = conditions: 2.5 mM
PC-3 prostate = conditions: 2.5 mM
SK-MEL-5 melanoma = conditions: 2.5 mM; runs of 1991

In the case of `O=c1[nH]cc(F)c(=O)[nH]1`, the growth (U251 CNS; runs of 1995) was “inactive: 29.7, 18.8, 30.2, 21.1 (2×), 16.8, 28.9, 17.5, 20.3, 26.7, 15.2, 20, 33.7, 23, 24.2, 16.2, 26.8 (2×), 20.9, 27.8, 25.2, 25.6, 26.2, 23.7, 27.3, 25.3, 22.1, 19.7, 38.6, 25, 30.5, 19.6, 22.5, 30.3, 32.4, 17, 30.9% and active: 8.7%, 2.3%”, the growth (U251 CNS; runs of 1996) was “inactive: 30.3, 21.8, 22.4 (3×), 25.9, 21, 26.3 (2×), 19.5, 27 (2×), 29.4, 20.7 (2×), 25.8, 24, 27.2, 27.7, 22.6, 17.2 (2×), 16.7, 21.1, 38.5, 25.5, 14.2, 35.5, 23.2, 33.3, 39.7, 26.1, 22.8, 19.2, 31.7, 21.6, 25, 12.1, 22.7, 24.7, 34.5, 27.9, 26.4 (2×), 44.5, 27.5, 23.3, 34.1, 24.1, 31.6% (2×) and active: 5.02%, -44.4%” and the growth (U251 CNS; runs of 1997) was “active: -22.8, -100, -10.4, 9.02, -8.28, 1.51% and inactive: 33.5, 21.3, 90.8, 22, 20.5, 26.7 (2×), 20.8, 23.9, 24.1, 13.8, 23.7, 18.8, 18.2, 14.1, 17.6, 15.7 (2×), 32.3, 17.8 (2×), 15.3, 22.6 (2×), 12.7, 17.1, 25.2, 18.5, 17, 40.9, 17.9, 27.7, 27.4, 21.5, 20.1, 30.3, 25.4, 23.1, 25.5%”. The growth (U251 CNS; runs of 1998) was “inactive: 21.3, 29.9, 26.3, 34.8, 53.4, 25.5, 30.9, 15.4, 18.2, 35.7, 12.9, 20.8, 18.1, 32.2, 33.8, 20.4, 13.8, 22.7, 27.5, 25.2, 17.7, 11.4, 22.3% and active: 4.66%”, the growth (U251 CNS; runs of 1999) was “active: 8.09, -78.7, 0.495, -66.2, -47.5, 0.603, -50.5, -53.1, -100, -76.9% and inactive: 23.6%, 14.6% (2×), 14.3%” and the growth (U251 CNS; runs of 2000) was “active: -35, 0.217, -31.2, -59.6%”. For the same compound, the growth (PC-3 prostate; runs of 1993) was “inactive: 18.5 (2×), 25.8 (2×), 21, 17, 14.4, 10.2, 20.1, 16.1, 28.8 (2×), 16.4, 19.2, 17.7, 17.3, 25.2, 10.3, 23.3, 22.3, 26.7, 22.6, 38.3, 35.4, 71.2, 40.2, 14.5, 26.2, 38.8, 25% and active: 8.59, -4.57, 8.27, 4.04, 6.8, 9.48, 4.05, 9.67, 7.08, -2.35, -15, 8.84, -27.3, 3.1, -3.85, 7.01, -41.3%”, the growth (PC-3 prostate; runs of 1994) was “inactive: 30.2, 21.2, 41.8, 14.3, 35.1, 37.6, 10, 26.9, 27.6, 35.9, 16, 67.2, 11.2, 26.8, 46.8, 25.9, 39.2, 17.1, 22, 18.7, 16.7, 27.1, 17.2, 12.5, 42.5, 23.4, 17.4, 11, 25.4% and active: 4.44, 4.76, 6.45, 3.33, 9.46%” and the growth (PC-3 prostate; runs of 1995) was “inactive: 32.1, 15.6 (2×), 20.6 (2×), 21.1, 25.9, 11.4, 32.9, 15.2, 18.5, 21.8, 23.5, 14.5, 18.7, 15.5, 39.3, 22.4, 24.6, 34.6, 10.2, 13.4, 25.1, 11.1, 23.6, 22.3, 22.1, 13.8, 13.2, 24.8% and active: -5, -28.1, 2.97, -16.5, -3.56, -34.3, -25.2, -26.3, 7.52, 3.05%”. The growth (PC-3 prostate; runs of 1996) was “inactive: 19.6 (2×), 26.6, 23.5, 30.4, 18.4 (2×), 18.2, 12.8, 34.9, 30.6, 26, 21.6, 20.7, 32.5, 27.8, 32.8, 14.4, 14.2, 35.2, 21.2, 23.6, 36.2, 36, 27.7 (2×), 22.2, 28.3, 25, 19.5, 15.2, 15.4, 37.7, 32.3, 22.1, 30.7, 10.7, 21.7, 18.3, 45, 43, 24.6, 11.2, 44.1, 33.9, 30.3% and active: 0.982, 9.5, -3.75, 7.61, -28.6, 5.81, 0.167, 9.36, 8.98, 6.8, 3.97, 6.96%”, the growth (PC-3 prostate; runs of 1997) was “inactive: 30.2 (2×), 31.9, 18.2, 28.7, 17, 29.2, 24.6, 18.1, 52.9, 18.7, 25.3, 28.4, 13.8, 26.9, 24.7, 66.5, 37.2, 30.1 (2×), 10.7, 34.4, 21.8, 15 (2×), 16.4, 26.6, 40.3, 20.9, 11.7, 37.7, 26.1, 18, 20.2, 22.7, 25.9, 21.6, 26, 28.8, 25, 26.4, 29.5, 25.7, 31, 24.1% and active: -7.72%” and the growth (PC-3 prostate; runs of 1998) was “inactive: 38.2, 18.7, 41.7, 26.5, 30.2, 36.5, 18.2, 40.4, 17.7, 32.8, 50.5, 16, 22.4, 21.3, 46.5, 42.3, 34.5, 37.8, 39.3, 43.5, 26.2% and active: 0.343%, 7.37%”. The growth (PC-3 prostate; runs of 1999) was “inactive: 46.3, 36, 29.6, 12.9% and active: -20.3, -80, -9.34, 0.516, -20.7, 0.553, 1.97, -27.9, -21.5, -43.5, -33.4, -42.9%”, the growth (PC-3 prostate; runs of 2000) was “active: -43.3, 0.112, -0.368, -29.2%” and the growth (SK-MEL-5 melanoma) was “inactive: 10% and active: -0.716, -44.5, -28.9, -2.02, 3.11, -82.3, -53, -57.2, -45.3, -83, -4.96, -28.7, -14.2, 6.3, -27.1, -23%”.
